This is an account of results in PubChem BioAssay AID1240 (Sanford-Burnham Center for Chemical Genomics, 2008).

Hit rate of the full screen: of about 50,000 compounds, about 800 (1.6%) showed an effect of 50% or more. The list shows a part of the results.

The target of the test is Bcl-2-like protein 10 (Homo sapiens) (UniProt Q9HD36). The test can be described thus: TR3 peptide-Bcl-B binding displacers, biochemical primary FP assay, phenotype converters (AID 1240).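 Note: 0% = Bcl-B with tracer peptide and DMSO and 100% = tracer peptide lacking Bcl-B.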 The settings on record: GST-Bcl-B / FITC-TR3 peptide fluorescence polarization; stronger effect = higher value; compound at 3.75 mg/L.
Sequence of UniProt Q9HD36 (Q9HD36 whole entry, looked up): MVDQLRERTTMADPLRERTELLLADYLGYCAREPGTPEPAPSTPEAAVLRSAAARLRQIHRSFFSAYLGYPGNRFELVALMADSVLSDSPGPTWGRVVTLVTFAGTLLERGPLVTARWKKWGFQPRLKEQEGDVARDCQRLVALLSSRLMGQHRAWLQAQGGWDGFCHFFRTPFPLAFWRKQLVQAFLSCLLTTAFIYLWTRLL
As for `CC(C)CN1C(=O)/C(=C/c2ccc(C(C)(C)C)cc2)SC1=S`, the displacement worked out at 8.1%. As for `COc1cccc(C(=O)Nc2cccc3c2C(=O)N(c2ccccc2)C3=O)c1`, the displacement amounted to 0.6%. Consider `Cc1ccc(S(=O)(=O)n2c(C)nc3ccccc32)cc1`, for which the displacement stood at 6.6%. As for `CCCCNCCOc1cccc(Cl)c1Cl`, the displacement was -2.8%. Then `Cc1[nH]c2ccccc2c1C(=O)/C=C/c1c2ccccc2cc2ccccc12`, with 4.6%; and `COc1ccccc1NC(=O)C(=O)NNC(=O)COc1ccc(Cl)cc1`, with -3.5%; and `O=C(N/N=C/c1c(O)ccc2ccccc12)c1cc(C23CC4CC(CC(C4)C2)C3)[nH]n1`, with -5.2%. Consider `Cc1ccn2c(-c3csc(Nc4cccc(O)c4)n3)c(C)nc2c1`, for which the displacement is -21.7%. For the compound `COc1ccc(C(=O)ON=C2c3ccccc3-c3ccccc32)cc1OC`, the displacement came out at 9.9%. In the case of `Cc1ccc(/C(O)=C/c2nc3ccccc3[nH]c2=O)o1`, the displacement stood at 130%.

Regarding `Cc1cccc(OCCOCCN2CCC(C)CC2)c1`, the displacement was -6.3%. `O=C(Nc1ccc(Cl)cc1)c1cccc(S(=O)(=O)NCc2ccccc2)c1`: the displacement was -11.1%.

As to `Brc1cccc(C=NN2CCN(Cc3ccccc3)CC2)c1`, the displacement is -6.7%.

On to `COc1ccc(N(CC(=O)Nc2ccc(C)cc2C)S(=O)(=O)c2ccc(C)cc2)c(OC)c1`, for which the displacement is 9.8%. Regarding `O=C(NCCCN1CCOCC1)NC1CCCCC1`, the displacement is 5.7%. `CC1=C(C(=O)Nc2ccc(Cl)cc2)C(c2ccccc2Br)NC(=O)N1` (centres undefined): the displacement stood at 1.4%. With `Cc1ccc(NC(=O)/C=C/c2ccc(C)o2)cc1` the figure was 3.6%; with `CCOC(=O)c1c(NC(=O)c2ccc(S(=O)(=O)N3CCCCCC3)cc2)sc2c1CCC2`, -12.9%.

Consider `Cc1cc(C)cc(N2C(=O)NC(=O)/C(=C\c3ccsc3)C2=O)c1`, for which the displacement was -7.8%. Take `O=c1c(=Nc2nn[nH]n2)c(=O)c2ccccc12`: the displacement is -7.2%.

With `Cc1ccc(C2C3=C(CC(C)(C)CC3=O)N=C3c4ccccc4C(=O)C32)cc1` (centres undefined), the displacement is 6.9%. With `CCCCCCCCNC(=O)CCC(=O)O` the figure was 14.1%; with `CCOC(=O)C1=C(C)NC(=O)NC1c1ccccc1Cl` (centres undefined), 3.8%. With `Cc1ccc(COc2ccc3oc(C)c(C(=O)O)c3c2)cc1` the figure was 7.3%. Then `COc1ccc(NC(=O)COc2ccc(C)cc2Br)cc1Cl`, with -7.9%. Take `COc1cc(C=C2C(=O)NC(=O)NC2=O)ccc1OC(=O)c1cc(F)c(F)cc1Cl`: the displacement was determined as 3.9%. Consider `O=C1/C(=C/c2ccc(Cl)cc2Cl)SC(=S)N1C1CCS(=O)(=O)C1` (centres undefined), for which the displacement was 7.1%. Turning to `COC(=O)c1ccc(NC(=O)C2CC2(c2ccccc2)c2ccccc2)cc1` (centres undefined), the displacement is -7.7%. With `COc1ccc(N2C(=O)NC(=O)/C(=C\C=C\c3ccccc3[N+](=O)[O-])C2=O)cc1` the figure was -2.4%; with `O=C1C(Cl)=C/C(=N\S(=O)(=O)c2ccc(Cl)cc2)C(Cl)=C1Cl`, 16.2%. Then `Cc1cc(C)cc(NC(=O)C(Cc2c[nH]c3ccccc23)NC(=O)Oc2ccccc2)c1` (centres undefined), with -10.2%; and `O=C1SCCC1NS(=O)(=O)c1cc(Cl)ccc1Cl` (centres undefined), with -12.7%; and `CCC(=NCc1ccccc1)c1c(C(F)(F)F)[nH]n(-c2nc3ccccc3s2)c1=O`, with -13.5%.

As to `CC1=C(C(=O)OC2CCCC2)C(c2cc3c(cc2[N+](=O)[O-])OCO3)NC(=O)N1C` (centres undefined), the displacement worked out at 17.2%.

`CC(=O)c1ccc(NC(=S)NC(NC(=O)c2ccccc2Br)C(Cl)(Cl)Cl)cc1` (centres undefined): the displacement amounted to 10.2%.

With `Cc1ccc(NS(=O)(=O)c2cccc3c2C(=O)c2ccccc2C3=O)cc1C`, the displacement was found to be 13%. As to `COc1ccc([N+](=O)[O-])cc1-c1ccc(C=C2C(=O)c3ccccc3C2=O)o1`, the displacement was -7.5%. In the case of `CCOC(=O)c1ccccc1NC(=O)/C=C/c1ccc(OC)c(Br)c1`, the displacement was found to be 7.3%. Then `Cc1ccc(N2NC(=O)/C(=C\c3ccc(Br)cc3)C2=O)cc1`, with 1.8%; and `O=C(O)C1C2CCC(O2)C1C(=O)NCc1ccc2c(c1)OCO2` (centres undefined), with -5.5%; and `O=C(COc1ccc2ccccc2c1)Nc1cccc(NC(=O)c2ccc(Cl)cc2Cl)c1`, with 0.4%. With `O=C(Nc1ccccn1)c1ccc(-c2ccccc2)cc1` the figure was -1.1%. Turning to `CC(C)(C)c1ccc(/C=C2\NC(=S)NC2=O)cc1`, the displacement was -20.2%. Consider `O=C(CCc1ccccc1)N/N=C/c1ccc(F)cc1`, for which the displacement is 12.2%.

As for `CC(=O)Nc1ccc(NC(=O)c2cc3cc([N+](=O)[O-])ccc3oc2=O)cc1`, the displacement amounted to 17.5%. As for `Cc1c(Cl)cccc1NC(=O)C(=O)NCc1ccc(F)cc1`, the displacement is -1.8%. `CCOC(=O)c1c(NC(=O)c2cccs2)sc(C(=O)Nc2ccc(OC)cc2OC)c1C`: the displacement was -5.8%. As to `CSc1nc2sc3c(c2c(=O)n1Cc1ccccc1)CCN(C)C3`, the displacement is -6.8%. For the compound `Cc1cc(NC(=O)c2nn3c(c2Cl)NC(c2ccc(Br)cc2)CC3C(F)(F)F)no1` (centres undefined), the displacement worked out at 0.5%.

`COc1ccc(/C=C(\NC(=O)c2ccccc2)C(=O)NCCCn2ccnc2)cc1`: the displacement is -15%.

Take `CS(=O)(=O)c1ccc2nc(NC(=O)c3ccc([N+](=O)[O-])cc3)sc2c1`: the displacement is 8%.

As for `CCOc1ccc(C(O)Cc2nc3ccccc3n2C)cc1` (centres undefined), the displacement was -7.9%.

With `CN1C(=O)C(=Cc2ccc(-c3ccccc3C(=O)O)o2)C(=O)N(C)C1=O`, the displacement was found to be 11.4%.

As to `CCOc1cccc(C(=O)Nc2ccc(NC(=O)c3ccco3)c(OC)c2)c1`, the displacement turned out to be 12.4%.

As to `CCc1nnc(NS(=O)(=O)c2ccc(NC(=O)c3ccccc3[N+](=O)[O-])cc2)s1`, the displacement is -2.8%.

For `O=C(N/N=C/c1ccc([N+](=O)[O-])cc1)c1cc(C2CC2)[nH]n1`, the displacement is -5.9%. With `O=C(CSc1nc2ccccc2[nH]1)Nc1ccccc1F` the figure was -9.7%; with `CCN1C(=O)c2cccc3c(NC(=O)c4cccs4)ccc1c23`, -29.9%. As to `O=C(CSc1ncc(-c2ccccc2)[nH]1)Nc1ccccc1`, the displacement came out at 17.3%. With `COc1cc(/C=C2\SC(=Nc3cccc(Cl)c3C)NC2=O)ccc1O`, the displacement is -18.2%. Then `Cc1ccccc1S(=O)(=O)N=C1C=CC(=O)C(Cl)=C1`, with 19.5%. As to `N#Cc1ccccc1OCC(=O)N/N=C/C=C/c1ccc([N+](=O)[O-])cc1`, the displacement turned out to be 11.6%.

Consider `COc1ccc(-c2nnc(NC(=O)c3ccco3)s2)cc1OC`, for which the displacement was 42.1%.

Consider `Nc1nnc(SCC(=O)NC2CCCC2)s1`, for which the displacement is -9.1%. Turning to `O=C1C(=O)N(CCc2ccccc2)c2ccc(Br)cc21`, the displacement was -3.4%. `O=C(Nc1cccc2ccccc12)/C(=C\c1cccc([N+](=O)[O-])c1)NC(=O)c1cccs1`: the displacement was -5%. `CC1=NOC(=O)/C1=C/c1ccc(OCc2ccc(F)cc2)cc1`: the displacement amounted to 9.5%. As to `COc1ccc(-c2cc3ccccc3oc2=O)cc1OC`, the displacement is 7.8%. `COc1cc(/C=C2/SC(=S)N(C)C2=O)ccc1OCCSc1ccc(Cl)cc1`: the displacement was found to be 43.6%.
